# Test results reported in the BET-seq Pho4 binding data (Le et al. 2018).
# The other results are listed elsewhere or left out. The energies were worked out here from pooled read counts, against the library average; single values are noisy.
# Target: T1, Pho4 (S. cerevisiae) (UniProt P07270)
# T1 sequence: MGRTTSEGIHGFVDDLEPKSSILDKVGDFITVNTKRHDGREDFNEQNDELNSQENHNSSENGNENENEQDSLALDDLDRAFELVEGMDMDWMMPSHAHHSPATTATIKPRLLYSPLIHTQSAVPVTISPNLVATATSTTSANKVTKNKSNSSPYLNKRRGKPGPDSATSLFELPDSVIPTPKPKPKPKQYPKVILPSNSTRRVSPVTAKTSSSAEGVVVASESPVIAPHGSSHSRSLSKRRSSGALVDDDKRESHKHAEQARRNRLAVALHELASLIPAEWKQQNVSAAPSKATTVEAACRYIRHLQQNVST
# Test: relative binding free energy (BET-seq); higher = weaker binding
# Details: reference: library average
row,Sequence,relative binding free energy [kcal/mol]
1,CATGTCACGTGTTGGA,0.18
2,TTCGGCACGTGTGACT,0.11
3,CTTTTCACGTGATTTA,0.44
4,AGATGCACGTGGTATT,-0.08
5,AGCGTCACGTGATTGT,0.21
6,TAAGGCACGTGTTCAT,-0.07
7,ATTGTCACGTGGTAAT,0.02
8,CGGCACACGTGTTTGT,0.09
9,AAGGTCACGTGACGTG,0.11
10,ATTTACACGTGTAATA,0.21
11,GCAAGCACGTGGTGGC,0.03
12,TGTGACACGTGCAGGG,0.02
13,AGAGACACGTGTAATG,0.26
14,TGTATCACGTGTCGGT,0.21
15,GTGGCCACGTGGATTG,-0.07
16,GGTTGCACGTGAGGCG,0.32
17,TAAGTCACGTGGTTAC,0.15
18,TAGGCCACGTGGCTGG,-0.14
19,GTTCACACGTGGGTTT,0.06
20,ATGGACACGTGTGGTC,0.16
21,ATAGTCACGTGTGGGC,0.23
22,AGGCACACGTGGGGGT,-0.19
23,TTTCTCACGTGTTTTC,0.18
24,TGATTCACGTGGCCTG,0.21
25,AGGGGCACGTGGGCCC,-0.13
26,GGTTCCACGTGTAGGA,0.07

row,Sequence,relative binding free energy [kcal/mol]
1,CTTGGCACGTGGTACT,-0.16
2,TGGTTCACGTGGGGAA,0.19
3,GGTTTCACGTGTAGGC,0.28
4,CTTTACACGTGGTGAT,-0.03
5,GTGTTCACGTGGGGAT,0.16
6,GGTCTCACGTGATAAT,0.46
7,TTGGGCACGTGGAGCC,0.15
8,GTTGTCACGTGGCGTC,0.14
9,TGGCTCACGTGGGTCT,0.19
10,GTGTGCACGTGGTTTG,0.05
11,TAATGCACGTGTTGAG,-0.04
12,GTGCACACGTGGGTGG,-0.04
13,GGGGCCACGTGCGGAT,-0.04
14,TGTTGCACGTGAAAGA,0.23
15,TGAGTCACGTGGTGGC,0.06
16,AATGTCACGTGTGTAA,0.21
17,CAGTGCACGTGTGGTG,0.1
18,TTCGTCACGTGGGAAA,0.16
19,CGGGCCACGTGGTCGG,-0.1
20,TTAATCACGTGTGCTG,0.09
21,AGGTACACGTGAGTGA,0.27
22,CTGGTCACGTGTTTGG,0.08
23,GATAGCACGTGTTTAT,-0.02
24,GTAGGCACGTGTCTAT,0.03
25,TGTGACACGTGGACTT,-0.05
26,CAAGTCACGTGTAGGG,0.1

row,Sequence,relative binding free energy [kcal/mol]
1,GGTGGCACGTGTACGA,-0.08
2,GTATACACGTGTGTTT,0.04
3,TCTGTCACGTGATAGT,0.21
4,TTATACACGTGGCGTG,-0.06
5,TTTTGCACGTGTGAGC,0.17
6,GGTGGCACGTGAAGGG,0.31
7,CTTTTCACGTGGGGGG,0.18
8,TGACGCACGTGTTGTT,-0.03
9,GAAGGCACGTGGGATA,-0.1
10,TGAAACACGTGGGTAA,0.02
11,CGAGTCACGTGTTTTG,0.12
12,CGTTTCACGTGGCTGA,0.25
13,ATTTGCACGTGTCTGG,0.03
14,TTACGCACGTGTGTTG,-0.13
15,AGAGTCACGTGGGTGT,0.02
16,AGAGACACGTGCTTTG,0.15
17,TTGTACACGTGAGGGA,0.26
18,AGAATCACGTGGTGGG,0.19
19,TGTCGCACGTGTGTCT,-0.11
20,TGACGCACGTGGTTAG,-0.14
21,AGTGGCACGTGTTAAG,-0.03
22,TTTGTCACGTGGTCTC,0.04
23,AGGTCCACGTGTAGGG,0.02
24,AAGGACACGTGGTGGC,-0.08
25,TGAGTCACGTGCATTG,0.05
26,TGTATCACGTGCGCTT,0.01

row,Sequence,relative binding free energy [kcal/mol]
1,TAGTGCACGTGGGTCT,-0.15
2,TGTATCACGTGTGGAT,0.11
3,GTGTACACGTGAGTCA,0.28
4,ACTGTCACGTGTTTGT,-0.03
5,TGGCTCACGTGGAAGG,0.28
6,ATGTCCACGTGGTATG,-0.16
7,TATGACACGTGGCATG,-0.16
8,GATGGCACGTGTTTTA,0.12
9,TTTCTCACGTGAAAGT,0.51
10,TTACGCACGTGGTAGA,-0.12
11,GTATGCACGTGAGATG,0.28
12,TTAGTCACGTGTAGTT,0.16
13,ATTGTCACGTGCGTAG,0.07
14,ATTATCACGTGGGCGG,-0.06
15,AGAGTCACGTGTCGGT,-0.02
16,ATGATCACGTGAGGAG,0.13
17,TGGGACACGTGGGCTT,-0.21
18,TCCAGCACGTGGGGTG,-0.29
19,TTCGTCACGTGAGTTG,0.27
20,TATTGCACGTGTCGTA,-0.18
21,AAGGACACGTGGACGG,0.17
22,CAGCGCACGTGTGGTT,-0.04
23,ACGTGCACGTGTGTGT,-0.01
24,AGGCACACGTGGGTCT,0.01
25,TCTACCACGTGTGGGT,0.13
26,GGTCTCACGTGCTATG,0.31

row,Sequence,relative binding free energy [kcal/mol]
1,AGGTTCACGTGATTTG,0.43
2,AGAACCACGTGTGGGT,-0.04
3,GGTATCACGTGCGGTG,0.19
4,TATTTCACGTGGACGG,0.43
5,TTTCGCACGTGGTGTG,-0.14
6,GTGCACACGTGGGGAT,-0.13
7,GAAGTCACGTGTCTGG,0.11
8,TTTATCACGTGTGACT,0.22
9,AATGACACGTGTGTAT,0.05
10,TGAGCCACGTGTAGTG,-0.03
11,GTGGTCACGTGGGAGA,0.12
12,ATTGTCACGTGTGACG,0.12
13,AGAGGCACGTGTATGA,-0.24
14,TTATCCACGTGGCGTT,0
15,TGTTTCACGTGACATT,0.36
16,GTGCGCACGTGACGGT,0.03
17,TGGGTCACGTGCGTCA,-0.05
18,CTGGGCACGTGTAGGC,-0.09
19,TTGATCACGTGATGGC,0.32
20,GTGTTCACGTGAATTG,0.39
21,GGGTACACGTGAGAGG,0.21
22,TGTGGCACGTGGGCTC,-0.24
23,TTAAGCACGTGTTAAG,-0.08
24,GTGGACACGTGTTTTA,0.08
25,GGGTTCACGTGGGGAC,0.12
26,TAGCGCACGTGGTGTT,-0.1

row,Sequence,relative binding free energy [kcal/mol]
1,TTTTTCACGTGTTGCA,0.28
2,CGTTGCACGTGGCGGC,-0.17
3,ATTATCACGTGTGCTT,0.03
4,CGGGGCACGTGTTGGG,-0.09
5,CTTTGCACGTGGGCGG,-0.23
6,ATTCTCACGTGGTCTG,0.12
7,CGGTGCACGTGGGGCT,-0.19
8,GATTACACGTGGAGGT,0.07
9,TATATCACGTGTTGCG,0.2
10,TTCTACACGTGGTGAG,0.08
11,TATTTCACGTGATGCA,0.35
12,GTATGCACGTGATGGT,0.12
13,GTTTACACGTGCGAGG,0.07
14,AGGGACACGTGTCTGT,-0.1
15,GTTCTCACGTGTTAGG,0.35
16,GGAGTCACGTGCGGAT,0.01
17,TGTCACACGTGGTGTC,0.06
18,TGCAACACGTGTAGGT,0.16
19,GGTAACACGTGTGCGA,0.09
20,AGTTACACGTGAGTGC,0.2
21,AACAGCACGTGTGGGG,-0.07
22,AGCTTCACGTGAATGT,0.31
23,GGTAGCACGTGAGTGC,0.1
24,CGCGGCACGTGTGAGG,0.02
25,AAGGTCACGTGTAAGG,0.16
26,TACTACACGTGTGGTT,0.21

row,Sequence,relative binding free energy [kcal/mol]
1,GTGAGCACGTGTAGAA,0.01
2,TTTAGCACGTGAATGT,0.24
3,TTTGTCACGTGCGTTG,0.13
4,TGATGCACGTGGTATG,-0.2
5,GTTTTCACGTGCGAGA,0.26
6,GGGCTCACGTGAGGAG,0.44
7,GTGCTCACGTGGGGTT,0.16
8,AGAAGCACGTGGGGTA,-0.32
9,TCTGCCACGTGGTGGT,-0.16
10,TTGTTCACGTGAGGGC,0.43
11,AATTGCACGTGATAAT,0.03
12,CAGGGCACGTGGGGAC,-0.25
13,ATTGTCACGTGCGGGG,0.02
14,GTTGTCACGTGCAATT,0.07
15,ATAGTCACGTGAAGGT,0.05
16,AGGTACACGTGTTTTA,0.05
17,TTGGCCACGTGCTTTG,-0.17
18,CCGGGCACGTGGTGAA,-0.09
19,ATTTGCACGTGCGTTC,-0.03
20,TATTTCACGTGGCGGG,0.26
21,GAGTGCACGTGTAGCT,0.13
22,GTTAGCACGTGGTTGT,-0.07
23,TATTGCACGTGGGAAA,-0.07
24,TCTAGCACGTGTATTG,-0.06
25,ATCAGCACGTGTGATG,0.12
26,TAATGCACGTGTTCAG,-0.06

row,Sequence,relative binding free energy [kcal/mol]
1,TTAGACACGTGAAGGT,0.21
2,TGTGGCACGTGTTTTA,-0.02
3,ATGTGCACGTGGTTAC,0.01
4,TGCGGCACGTGAATCG,0.2
5,TAAGGCACGTGGATAA,0
6,TCCGGCACGTGGGGTT,-0.18
7,TTTGGCACGTGTTGCG,-0.03
8,TATAGCACGTGGGCAG,-0.22
9,TATTCCACGTGTGTGG,0.03
10,CATAGCACGTGTGTTT,0.01
11,TATTACACGTGTGTAA,0.01
12,CATGTCACGTGAGTTT,0.36
13,AAAGGCACGTGGGGCT,-0.33
14,ATAGTCACGTGGGAGA,-0.11
15,TCGTGCACGTGCGGGA,-0.17
16,TTGGACACGTGCTAGT,0.08
17,GCTTTCACGTGCGTGG,0.03
18,TGCGTCACGTGGTAGG,-0.08
19,TCTTTCACGTGTAGTA,0.27
20,TTCGGCACGTGGGCGT,-0.21
21,CAGGGCACGTGTGTTC,-0.05
22,AGTGACACGTGATGAG,0.04
23,GAACGCACGTGGTGTT,-0.08
24,TATTACACGTGGATGG,0.12
25,TTCAGCACGTGGGCGT,-0.27
26,ATAAGCACGTGGGGTA,-0.16

row,Sequence,relative binding free energy [kcal/mol]
1,GTCTGCACGTGTATTA,0.03
2,TTCGTCACGTGTTTTC,0.11
3,GCTATCACGTGGGTGG,-0.03
4,GATATCACGTGGTGGC,0.23
5,AATGGCACGTGTGTGG,-0.04
6,AGCGTCACGTGGGGTC,-0.03
7,TAATTCACGTGTTCTT,0.28
8,TAATTCACGTGTGCAT,0.24
9,TGTCGCACGTGTAGTG,-0.09
10,TCATGCACGTGTTAGG,-0.07
11,TGGTACACGTGAGTTT,0.34
12,AGATTCACGTGCAGGT,0.09
13,TAGGACACGTGTCTTG,0.06
14,ATGTTCACGTGTATTT,0.21
15,TGTGGCACGTGCCGTG,-0.11
16,TATAACACGTGGTAAG,-0.09
17,TGGATCACGTGCTGAT,0.16
18,AAGGGCACGTGTTATG,0.02
19,TCAGACACGTGTTGGT,0.08
20,ACTGGCACGTGTGTAG,-0.25
21,TGGTCCACGTGTGGCG,0.04
22,TGAGGCACGTGAATGA,0.25
